# Test results as given in the supplement of paper PMC8728848.
# The list shows a part of the results.
# Assays:
# Experiment in all cases: glycan array binding signal (z-score within array); higher = stronger binding
# Conditions in all cases: glycan notation: IUPAC condensed, linker removed
# [1] = molecular target: Gal(b1-4)GlcNAc(b1-3)Gal(b1-4)GlcNAc(b1-3)Gal(b1-4)GlcNAc
# Summary of the method: (§1)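 The binding signal is a Z-score computed within each array and averaged over linkers. Arrays of the same protein sequence at different concentrations or buffers were also averaged together. Data originate from 3228 arrays in the Consortium for Functional Glycomics database, kept only where the protein sequence was available.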
# [2] = molecular target: Gal(b1-4)GlcNAc(b1-3)Gal(b1-4)[Fuc(a1-3)]GlcNAc(b1-3)Gal(b1-4)[Fuc(a1-3)]GlcNAc
# Summary of the method: as §1
# [3] = molecular target: Gal(b1-4)GlcNAc(b1-3)GalNAc
# Summary of the method: as §1
# [4] = molecular target: Gal(b1-4)GlcNAc(b1-3)[Gal(b1-4)GlcNAc(b1-6)]Gal(b1-4)GlcNAc
# Summary of the method: as §1
# [5] = molecular target: Gal(b1-4)GlcNAc(b1-3)[GlcNAc(b1-6)]Gal(b1-4)GlcNAc
# Summary of the method: as §1
# [6] = molecular target: Gal(b1-4)GlcNAc(b1-6)Gal(b1-4)GlcNAc
# Summary of the method: as §1
# [7] = molecular target: Gal(b1-4)GlcNAc(b1-6)Gal(b1-4)GlcNAc(b1-6)GalNAc
# Summary of the method: as §1
# [8] = molecular target: Gal(b1-4)GlcNAc(b1-6)GalNAc
# Summary of the method: as §1
# [9] = molecular target: Gal(b1-4)GlcNAc(b1-6)[Gal(b1-3)]GalNAc
# Summary of the method: as §1
# [10] = molecular target: Gal3S(b1-3)GalNAc
# Summary of the method: as §1
# [11] = molecular target: Gal3S(b1-3)GlcNAc
# Summary of the method: as §1
# [12] = molecular target: Gal3S(b1-3)[Fuc(a1-4)]GlcNAc
# Summary of the method: as §1
# [13] = molecular target: Gal3S(b1-4)Glc
# Summary of the method: as §1
# [14] = molecular target: Gal3S(b1-4)Glc6S
# Summary of the method: as §1
# [15] = molecular target: Gal3S(b1-4)GlcNAc
# Summary of the method: as §1
# [16] = molecular target: Gal3S(b1-4)GlcNAc6S
# Summary of the method: as §1
# [17] = molecular target: Gal3S(b1-4)[Fuc(a1-3)]Glc
# Summary of the method: as §1
# [18] = molecular target: Gal3S4S(b1-4)GlcNAc
# Summary of the method: as §1
# [19] = molecular target: Gal3S6S(b1-4)GlcNAc
# Summary of the method: as §1
# [20] = molecular target: Gal3S6S(b1-4)GlcNAc6S
# Summary of the method: as §1
# [21] = molecular target: Gal4S(b1-4)GlcNAc
# Summary of the method: as §1
# [22] = molecular target: Gal4S6S(b1-4)GlcNAc
# Summary of the method: as §1
# [23] = molecular target: Gal6S(b1-4)Glc
# Summary of the method: as §1
# [24] = molecular target: Gal6S(b1-4)Glc6S
# Summary of the method: as §1
# [25] = molecular target: Gal6S(b1-4)GlcNAc
# Summary of the method: as §1
# [26] = molecular target: Gal6S(b1-4)GlcNAc6S
# Summary of the method: as §1
# [27] = molecular target: GalNAc(a1-3)Gal
# Summary of the method: as §1
# [28] = molecular target: GalNAc(a1-3)GalNAc
# Summary of the method: as §1
# [29] = molecular target: GalNAc(b1-3)Gal
# Summary of the method: as §1
# [30] = molecular target: GalNAc(b1-3)Gal(a1-4)Gal(b1-4)GlcNAc
# Summary of the method: as §1
# [31] = molecular target: GalNAc(b1-3)GalNAc
# Summary of the method: as §1
# [32] = molecular target: GalNAc(b1-4)GlcNAc
# Summary of the method: as §1
# [33] = molecular target: Glc(a1-4)Glc
# Summary of the method: as §1
# [34] = molecular target: Glc(a1-6)Glc(a1-6)Glc
# Summary of the method: as §1
# [35] = molecular target: Glc(b1-4)Glc
# Summary of the method: as §1
# [36] = molecular target: Glc(b1-6)Glc
# Summary of the method: as §1
# [37] = molecular target: GlcA(b1-3)Gal
# Summary of the method: as §1
# [38] = molecular target: GlcA(b1-3)GlcNAc
# Summary of the method: as §1
# [39] = molecular target: GlcA(b1-6)Gal
# Summary of the method: as §1
# [40] = molecular target: GlcNAc(a1-3)Gal(b1-4)GlcNAc
# Summary of the method: as §1
# [41] = molecular target: GlcNAc(a1-6)Gal(b1-4)GlcNAc
# Summary of the method: as §1
# [42] = molecular target: GlcNAc(b1-2)Gal(b1-3)GalNAc
# Summary of the method: as §1
# [43] = molecular target: GlcNAc(b1-2)Man(a1-3)[GlcNAc(b1-2)Man(a1-6)]Man(b1-4)GlcNAc(b1-4)GlcNAc
# Summary of the method: as §1
# [44] = molecular target: GlcNAc(b1-3)Gal
# Summary of the method: as §1
# [45] = molecular target: GlcNAc(b1-3)Gal(b1-3)GalNAc
# Summary of the method: as §1
binder,measurement,setting,value
"P-Selectin (Homo sapiens), P16109 (protein) MANCQIAILYQRFQRVVFGISQLLCFSALISELTNQKEVAAWTYHYSTKAYSWNISRKYCQNRYTDLVAIQNKNEIDYLNKVLPYYSSYYWIGIRKNNKTWTWVGTKKALTNEAENWADNEPNNKRNNEDCVEIYIKSPSAPGKWNDEHCLKKKHALCYTASCQDMSCSKQGECLETIGNYTCSCYPGFYGPECEYVRECGELELPQHVLMNCSHPLGNFSFNSQCSFHCTDGYQVNGPSKLECLASGIWTNKPPQCLAAQCPPLKIPERGNMTCLHSAKAFQHQSSCSFSCEEGFALVGPEVVQCTASGVWTAPAPVCKAVQCQHLEAPSEGTMDCVHPLTAFAYGSSCKFECQPGYRVRGLDMLRCIDSGHWSAPLPTCEAISCEPLESPVHGSMDCSPSLRAFQYDTNCSFRCAEGFMLRGADIVRCDNLGQWTAPAPVCQALQCQDLPVPNEARVNCSHPFGAFRYQSVCSFTCNEGLLLVGASVLQCLATGNWNSVPPECQAIPCTPLLSPQNGTMTCVQPLGSSSYKSTCQFICDEGYSLSGPERLDCTRSGRWTDSPPMCEAIKCPELFAPEQGSLDCSDTRGEFNVGSTCHFSCDNGFKLEGPNNVECTTSGRWSATPPTCKGIASLPTPGLQCPALTTPGQGTMYCRHHPGTFGFNTTCYFGCNAGFTLIGDSTLSCRPSGQWTAVTPACRAVKCSELHVNKPIAMNCSNLWGNFSYGSICSFHCLEGQLLNGSAQTACQENGHWSTTVPTCQAGPLTIQEASTSITAYKSEGESAEFSFPLNLGEESLQGELRWKAEKAPSSQSWITFSLKNQKVSVQKSTSNPKFQLSETLPLTLQIPQVSLQFAGSGNLTLTLDRGILYQEVNLVVMKVTQPDSNTLTCEVMGPTSPKMRLILKQENQEARVSRQEKVIQVQAPEAGVWQCLLSEGEEVKMDSKIQVLSKGLNSGGGSGGGTGGGDLAPQMLRELQETNAALQDVRELLRQQVKEITFLKNTVMECDACGLDRNLPPLAPLGPHPETLVKVKDAEDQLGARVGYIELDLNSGKILESFRPEERFPMMSTFKVLLCGAVLSRIDAGQEQLGRRIHYSQNDLVEYSPVTEKHLTDGMTVRELCSAAITMSDNTAANLLLTTIGGPKELTAFLHNMGDHVTRLDRWEPELNEAIPNDERDTTMPVAMATTLRKLLTGELLTLASRQQLIDWMEADKVAGPLLRSALPAGWFIADKSGAGERGSRGIIAALGPDGKPSRIVVIYTTGSQATMDERNRQIAEIGASLIKHWGPDYKDHDGDYKDHDIDYKDDDDKGPHHHHHH",glycan array binding signal (z-score),[1],-0.277
same,glycan array binding signal (z-score),[2],-0.405
same,glycan array binding signal (z-score),[3],-0.342
same,glycan array binding signal (z-score),[4],-0.358
same,glycan array binding signal (z-score),[5],-0.269
same,glycan array binding signal (z-score),[6],-0.329
same,glycan array binding signal (z-score),[7],-0.387
same,glycan array binding signal (z-score),[8],-0.139
same,glycan array binding signal (z-score),[9],-0.315
same,glycan array binding signal (z-score),[10],-0.113
same,glycan array binding signal (z-score),[11],0.038
same,glycan array binding signal (z-score),[12],0.319
same,glycan array binding signal (z-score),[13],-0.16
same,glycan array binding signal (z-score),[14],0.778
same,glycan array binding signal (z-score),[15],0.035
same,glycan array binding signal (z-score),[16],0.313
same,glycan array binding signal (z-score),[17],0.089
same,glycan array binding signal (z-score),[18],0.146
same,glycan array binding signal (z-score),[19],0.645
same,glycan array binding signal (z-score),[20],4.08
same,glycan array binding signal (z-score),[21],-0.137
same,glycan array binding signal (z-score),[22],0.693
same,glycan array binding signal (z-score),[23],-0.075
same,glycan array binding signal (z-score),[24],1.88
same,glycan array binding signal (z-score),[25],0.026
same,glycan array binding signal (z-score),[26],1.19
same,glycan array binding signal (z-score),[27],-0.417
same,glycan array binding signal (z-score),[28],0.348
same,glycan array binding signal (z-score),[29],-0.362
same,glycan array binding signal (z-score),[30],-0.235
same,glycan array binding signal (z-score),[31],-0.321
same,glycan array binding signal (z-score),[32],-0.407
same,glycan array binding signal (z-score),[33],-0.113
same,glycan array binding signal (z-score),[34],-0.324
same,glycan array binding signal (z-score),[35],-0.018
same,glycan array binding signal (z-score),[36],0.086
same,glycan array binding signal (z-score),[37],-0.125
same,glycan array binding signal (z-score),[38],-0.27
same,glycan array binding signal (z-score),[39],-0.001
same,glycan array binding signal (z-score),[40],-0.387
same,glycan array binding signal (z-score),[41],-0.375
same,glycan array binding signal (z-score),[42],-0.413
same,glycan array binding signal (z-score),[43],-0.237
same,glycan array binding signal (z-score),[44],-0.152
same,glycan array binding signal (z-score),[45],-0.379
